{
  "source": "PubChem BioAssay (Tox21)",
  "key": {"[1]": {"assay": "qHTS assay to identify small molecule agonists of H2AX (AID 1224845; active means well fitted activation curve with a large enough effect in the signal ratio in the repeat runs, not every such curve was filed as active; inconclusive means weak or mixed curves; the % refers to the signal ratio; further: potency means the concentration at half of the fitted maximal effect)", "conditions": "CHO-K1 phospho-H2AX Ser139 HTRF, 3 h; activation (H2AX phosphorylation): at 154 µM (top of the series) unless noted", "procedure,_shortened": "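Phospho-H2AX Ser139 measured by HTRF (ex 320 nm; em 665 and 620 nm) after 24 hr antibody incubation. Compounds, 15 concentrations, 0.76% DMSO, were applied to CHO-K1 cells for 3hr at 37C before lysis.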"}, "[2]": {"assay": "qHTS assay to identify small molecule agonists of the hypoxia (HIF-1) signaling pathway - cell viability counter screen (AID 1224844); further: nearly all actives have a fitted effect of over 50% in size; further: potency means the concentration at half of the fitted maximal effect", "procedure,_shortened": "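Multiplexed with the HRE beta-lactamase assay, this viability read used CellTiter-Glo luminescence (30 min, RT) on HRE-bla ME-180 cells treated 17 hrs with compounds in 0.5% dialyzed FBS medium.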"}, "[3]": {"assay": "qHTS assay to identify small molecule agonists of the hypoxia (HIF-1) signaling pathway (AID 1224846; active means well fitted activation curve with a large enough effect in the signal ratio in the repeat runs, not every such curve was filed as active; inconclusive means weak or mixed curves; the % refers to the signal ratio; further: potency means the concentration at half of the fitted maximal effect)", "conditions": "HRE-bla ME-180 cells, beta-lactamase ratio, 17 h; activation: at 76.8 µM (top of the series) unless noted", "procedure,_shortened": "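Hypoxia-pathway activation was scored as increased beta-lactamase from an HRE-controlled reporter in ME-180 cells; plated at 2,000 cells per well with 0.5% dialyzed FBS, they were exposed 17 hrs to compounds and then given CCF4-AM.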"}, "[4]": {"assay": "qHTS assay to identify small molecule agonists of H2AX - cell viability counter screen (AID 1224847); further: nearly all actives have a fitted effect of over 30% in size; further: potency means the concentration at half of the fitted maximal effect", "procedure,_shortened": "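Compounds tested at 15 concentrations were incubated 3 hr at 37C with wild-type CHO-K1 cells; cellular ATP-based luminescence (CellTiter-Glo) indicated viability.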"}, "[5]": {"assay": "qHTS RealTime-Glo MT Cell Viability Assay in HepG2 cells - 24 hour (AID 1224867; active means well fitted curve in the direction sought with a large enough effect in the repeat runs; inconclusive means weak or mixed curves; inactive means no such curve, though single readings can be large; an effect the other way counts as inactive or inconclusive; further: nearly all actives have a fitted effect of over 50% in size)", "procedure,_shortened": "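Real-time, nonlytic viability: 600 HepG2 cells/well mixed with NanoLuc enzyme plus prosubstrate; 5 h settle, compound (DMSO) added by pintool; luminescence monitored over 40 h at 37 C.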"}, "[6]": {"assay": "qHTS RealTime-Glo MT Cell Viability Assay in HEK293 cells - 32 hour (AID 1224868; active means well fitted curve in the direction sought with a large enough effect in the repeat runs; inconclusive means weak or mixed curves; inactive means no such curve, though single readings can be large; an effect the other way counts as inactive or inconclusive; further: nearly all actives have a fitted effect of over 50% in size; further: potency means the concentration at half of the fitted maximal effect)", "procedure,_shortened": "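Cells + reagent dispensed (600 cells/well, HEK293) → 5 h at 37 C/5% CO2 → 23 nL compound in DMSO pinned → 40 h at 37 C → luminescence read at 0, 8, 16, 24, 32, 40 h.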"}, "[7]": {"assay": "qHTS assay to identify small molecule agonists of the estrogen related receptor (ERR) signaling pathway from Tox21 library (AID 1224849); further: nearly all actives have a fitted effect of over 15% in size", "conditions": "ERR reporter cell line, ONE-Glo luciferase, 18 h; at 92.4 µM (top of the series) unless noted", "procedure,_shortened": "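Six hours post-seeding at 37 C/5% CO2, ERR cells receive DMSO-solubilised compounds; after 18 h at 37 C, ONE-Glo reagent is applied and luminescence recorded.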"}, "[8]": {"assay": "qHTS assay to identify small molecule antagonists of the estrogen related receptor (ERR) signaling pathway from Tox21 library (AID 1224848; active means well fitted curve in the direction sought with a large enough effect in the repeat runs; inconclusive means weak or mixed curves; inactive means no such curve, though single readings can be large; an effect the other way counts as inactive or inconclusive; further: nearly all actives have a fitted effect of over 50% in size)", "procedure,_shortened": "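Reading was by luminescence 30 min after ONE-Glo addition. Before that, ERR cells at 2,000 per well had rested 6 h at 37 C/5% CO2 and then received pin-tooled compounds in DMSO for 18 h at 37 C.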"}, "[9]": {"assay": "A CellTox Green Cytotoxicity Assay to monitor cytotoxicity in HEK293 cells - 0 hour (AID 1224869; active means well fitted curve in the direction sought with a large enough effect in the repeat runs; inconclusive means weak or mixed curves; inactive means no such curve, though single readings can be large; an effect the other way counts as inactive or inconclusive)", "procedure,_shortened": "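Seeding of HEK293 cells together with cytotoxicity dye preceded a 5 h incubation at 37 C/5% CO2. Test compounds in DMSO were then added and fluorescence monitored across 40 h.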"}},
  "note": "The inconclusive results got no clear call from the source; some entries with a clear call stand among them for comparison. Entries that show only a call come without a potency. For some assays here: Where the call is inconclusive, the potency comes from a doubtful curve fit. The source made the active and inactive calls. Unless noted, the call rests on the fitted dose curve. Tags describe the fitted curve by direction and shape or compound fluorescence and quenching.",
  "data": [
    {"smiles": "CN(C)c1ccncc1", "values": [
      {"measurement": "Potency", "setting": "[1]", "result": "inactive"}
    ]},
    {"smiles": "CC(=O)Oc1ccc(C2(c3ccc(OC(C)=O)cc3)C(=O)Nc3ccccc32)cc1", "values": [
      {"measurement": "Potency", "setting": "[2]", "result": "active: 0.0425 µM"},
      {"measurement": "Potency", "setting": "[3]", "result": "inconclusive: 0.239 µM [falling, full curve, poor fit]"}
    ]},
    {"smiles": "Cc1ccc2c(c1)C(=O)c1ccccc1C2=O", "values": [
      {"measurement": "activation (H2AX phosphorylation)", "setting": "[1]", "result": "inconclusive: -2.44%"},
      {"measurement": "Potency", "setting": "[3]", "result": "inactive"}
    ]},
    {"smiles": "CCN(CC)CCSC(=O)C(c1ccccc1)c1ccccc1", "values": [
      {"measurement": "Potency", "setting": "[1]", "result": "inconclusive: 24.7 µM [fluorescent]"},
      {"measurement": "Potency", "setting": "[4]", "result": "inconclusive: 61.9 µM [rising, single point]"},
      {"measurement": "Potency", "setting": "[5]", "result": "inactive"}
    ]},
    {"smiles": "CCCCOCC(C)OCC(C)O", "note": "(configuration not stated)", "values": [
      {"measurement": "Potency", "setting": "[2]", "result": "inactive"},
      {"measurement": "Potency", "setting": "[6]", "result": "inactive"}
    ]},
    {"smiles": "CN1N=C(C(N)=O)CCC1=O", "values": [
      {"measurement": "Potency", "setting": "[2]", "result": "inactive"},
      {"measurement": "Potency", "setting": "[3]", "result": "inactive"}
    ]},
    {"smiles": "COC(=O)CCCCC(CCSS/C(CCO)=C(\\C)N(C=O)Cc1cnc(C)nc1N)SC(C)=O", "note": "(configuration not stated)", "values": [
      {"measurement": "Potency", "setting": "[1]", "result": "inactive"}
    ]},
    {"smiles": "COCCCC/C(=N\\OCCN)c1ccc(C(F)(F)F)cc1", "values": [
      {"measurement": "Potency", "setting": "[2]", "result": "inconclusive: 23.9 µM [cytotoxic, partial curve]"},
      {"measurement": "Potency", "setting": "[6]", "result": "inconclusive: 10.7 µM [cytotoxic, partial curve]"}
    ]},
    {"smiles": "C=CC(C)(CCC=C(C)C)OC(C)=O", "note": "(configuration not stated)", "values": [
      {"measurement": "Potency", "setting": "[2]", "result": "inactive"},
      {"measurement": "Potency", "setting": "[6]", "result": "inactive"}
    ]},
    {"smiles": "COCCCOCCCOC", "values": [
      {"measurement": "Potency", "setting": "[2]", "result": "inconclusive: 0.195 µM [cytotoxic, partial curve, poor fit]"},
      {"measurement": "activity change, positive = activation", "setting": "[7]", "result": "inconclusive: 13.3%"}
    ]},
    {"smiles": "N=c1ccn2c(n1)O[C@H]1[C@H](O)[C@@H](CO)O[C@H]12", "values": [
      {"measurement": "activation (H2AX phosphorylation)", "setting": "[1]", "result": "inconclusive: 12.4%"},
      {"measurement": "Potency", "setting": "[4]", "result": "inconclusive: 1.6 µM [cytotoxic, single point]"}
    ]},
    {"smiles": "CC(C)=CCC/C(C)=C/COC=O", "values": [
      {"measurement": "Potency", "setting": "[1]", "result": "inactive"}
    ]},
    {"smiles": "O=C1[C@@H]2[C@H]3CC[C@H](C3)[C@@H]2C(=O)N1CCCCN1CCN(c2ncccn2)CC1", "values": [
      {"measurement": "Potency", "setting": "[1]", "result": "inactive"}
    ]},
    {"smiles": "CCOC(=O)COc1ccc2c(C)c(CCN(CC)CC)c(=O)oc2c1Cl", "values": [
      {"measurement": "Potency", "setting": "[1]", "result": "inactive"}
    ]},
    {"smiles": "O=S(=O)(O)c1ccc(Nc2nc(Nc3ccc(/C=C/c4ccc(Nc5nc(Nc6ccc(S(=O)(=O)O)cc6)nc(N(CCO)CCO)n5)cc4S(=O)(=O)O)c(S(=O)(=O)O)c3)nc(N(CCO)CCO)n2)cc1", "values": [
      {"measurement": "Potency", "setting": "[1]", "result": "inconclusive: 38.3 µM [falling, partial curve, poor fit]"},
      {"measurement": "Potency", "setting": "[3]", "result": "inconclusive: 37.1 µM [activator, single point]"},
      {"measurement": "Potency", "setting": "[6]", "result": "inactive"}
    ]},
    {"smiles": "CO[C@@H]1COCC[C@@H]1N[C@@H]1CC[C@@](C(=O)N2CCc3ncc(C(F)(F)F)cc3C2)(C(C)C)C1", "values": [
      {"measurement": "Potency", "setting": "[1]", "result": "inconclusive: 5.03 µM [rising, partial curve, poor fit]"},
      {"measurement": "Potency", "setting": "[3]", "result": "inactive"}
    ]},
    {"smiles": "CCCCCCCCCCOC(=O)c1ccccc1C(=O)OCCCCCCCC", "values": [
      {"measurement": "Potency", "setting": "[1]", "result": "inactive"}
    ]},
    {"smiles": "CCCCCCOC(=O)c1ccccc1", "values": [
      {"measurement": "Potency", "setting": "[2]", "result": "active: 19.5 µM"},
      {"measurement": "Potency", "setting": "[3]", "result": "inconclusive: 19.5 µM [rising, partial curve]"},
      {"measurement": "Potency", "setting": "[8]", "result": "inactive"},
      {"measurement": "Potency", "setting": "[6]", "result": "inconclusive: 54.9 µM [cytotoxic, partial curve, poor fit]"}
    ]},
    {"smiles": "CC(C)C(C)(C)C(C)(C)C(C)(C)S", "values": [
      {"measurement": "Potency", "setting": "[2]", "result": "inconclusive: 1.95 µM [cytotoxic, full curve, poor fit]"},
      {"measurement": "Potency", "setting": "[9]", "result": "inconclusive: 49 µM [activator, partial curve]"}
    ]},
    {"smiles": "Cc1cc(SC2=C(O)C[C@@](CCc3ccc(N)cc3)(C(C)C)OC2=O)c(C(C)(C)C)cc1CO", "values": [
      {"measurement": "Potency", "setting": "[4]", "result": "inactive"}
    ]},
    {"smiles": "CC(=O)OCC(=O)[C@@]1(O)[C@H](C)C[C@H]2[C@@H]3CCC4=CC(=O)C=C[C@]4(C)[C@@]3(F)[C@@H](O)C[C@@]21C", "values": [
      {"measurement": "Potency", "setting": "[4]", "result": "inactive"}
    ]},
    {"smiles": "OC(CCl)CCl", "values": [
      {"measurement": "Potency", "setting": "[1]", "result": "inactive"},
      {"measurement": "Potency", "setting": "[6]", "result": "inactive"}
    ]},
    {"smiles": "CCCCCC1=CCCC1=O", "values": [
      {"measurement": "Potency", "setting": "[3]", "result": "inactive"}
    ]},
    {"smiles": "N#Cc1ccccc1O", "values": [
      {"measurement": "Potency", "setting": "[4]", "result": "inconclusive: 1.79 µM [cytotoxic, single point]"}
    ]},
    {"smiles": "CNc1c2c(nn1C)CCCC2", "values": [
      {"measurement": "activation", "setting": "[3]", "result": "inconclusive: 6.86% [at 35.5 µM]"},
      {"measurement": "Potency", "setting": "[4]", "result": "inactive"}
    ]},
    {"smiles": "NS(=O)(=O)c1cc(C(=O)NN2C[C@H]3[C@H]4CCC(C4)[C@H]3C2)ccc1Cl", "values": [
      {"measurement": "Potency", "setting": "[3]", "result": "inactive"},
      {"measurement": "Potency", "setting": "[4]", "result": "inactive"}
    ]},
    {"smiles": "CC(=N\\O)/C(C)=N/O", "values": [
      {"measurement": "Potency", "setting": "[3]", "result": "inconclusive: 30.9 µM [rising, partial curve]"}
    ]}
  ]
}
